Assay results as given in publication PMC6919601, “Identification of Plasmodium dipeptidyl aminopeptidase allosteric inhibitors by high throughput screening” (PLoS ONE, 2019).
In all, about 110,000 compounds went through this assay and about 230 (0.21%) showed an effect of 50% or more. The list shows a part of the results.

biological target: DPAP1 (Plasmodium falciparum, UniProt Q8IIJ9); assay: primary screen, percent inhibition; read by cleavage of a fluorogenic dipeptide substrate; higher = more effect of the substance; design: species or system P. falciparum D10 trophozoite lysates; single well
Sequence (Q8IIJ9 whole entry, looked up): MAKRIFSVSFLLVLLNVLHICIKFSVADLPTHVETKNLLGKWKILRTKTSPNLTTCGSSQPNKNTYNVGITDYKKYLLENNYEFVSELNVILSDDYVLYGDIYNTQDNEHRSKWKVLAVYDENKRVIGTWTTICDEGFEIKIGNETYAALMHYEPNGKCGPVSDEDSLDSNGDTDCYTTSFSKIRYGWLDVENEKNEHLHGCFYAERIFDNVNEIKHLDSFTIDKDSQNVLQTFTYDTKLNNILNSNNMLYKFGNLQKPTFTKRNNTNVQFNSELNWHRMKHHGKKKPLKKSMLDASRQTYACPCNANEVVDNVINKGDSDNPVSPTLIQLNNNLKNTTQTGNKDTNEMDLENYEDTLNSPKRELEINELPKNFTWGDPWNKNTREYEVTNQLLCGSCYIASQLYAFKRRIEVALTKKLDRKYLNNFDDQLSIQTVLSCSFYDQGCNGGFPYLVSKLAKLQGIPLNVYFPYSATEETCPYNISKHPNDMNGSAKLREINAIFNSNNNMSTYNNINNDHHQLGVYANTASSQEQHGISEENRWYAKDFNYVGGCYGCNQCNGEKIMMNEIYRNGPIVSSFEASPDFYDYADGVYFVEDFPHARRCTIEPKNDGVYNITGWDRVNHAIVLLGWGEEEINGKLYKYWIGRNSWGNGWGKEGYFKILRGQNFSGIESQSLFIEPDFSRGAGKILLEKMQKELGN
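Also: 30 min substrate incubation versus DMSO and 10 µM JCP410 controls.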

Compound | % Inhibition @ 10 uM
CCc1nc2ccccc2n1CC(O)COc1cccc(OC)c1 (centres unmarked) | 3.93%
COc1cccc(NC(=O)C2C(C(=O)O)C3C=CC2C32CC2)c1 (centres unmarked) | -3.26%
N#CC1=C(N)OC2=C(C(=O)CC(c3ccccc3)C2)C1c1ccccc1F (centres unmarked) | 10.5%
Cc1ccc(-n2ncc3c(N4CCOCC4)ncnc32)cc1Cl | -0.247%
CCOC(=O)c1sc2nc(-c3ccc(C)cc3C)cc(-c3ccccc3)c2c1N | -0.158%
C=CCOc1ccc(/C=c2\sc3nc(-c4ccc(F)cc4)nn3c2=O)cc1OC | 0.347%
COc1ccc2[nH]c3ccccc3c2c1 | -1.46%
Nc1nn(-c2ccccc2)nc1C(=O)OCc1ccc(Cl)cc1Cl | -0.703%
CCOC(=O)c1c(CN2CCOCC2)n(C)c2ccc(O)cc12 | -3.93%
CCC(C)NC(=O)c1cc2nc(-c3ccccc3)cc(-c3ccccc3)n2n1 (centres unmarked) | -4.13%
COc1ccccc1C(=O)Nc1c(-c2ccccc2)nc2ccccn12 | 5.55%
CCOC(=O)C1=C(C)N=c2s/c(=C\c3ccc(C(C)C)cc3)c(=O)n2C1c1ccc2c(c1)OCO2 (centres unmarked) | -6.88%
CCN(CC)CCNC(=O)Cn1ncc2c3ccccc3n(Cc3cccc(Cl)c3)c2c1=O | 0.137%
COc1ccc2[nH]c3c(=O)n(CCCCCC(=O)NCc4ccc5c(c4)OCO5)c(=S)[nH]c3c2c1 | 1.24%
CCc1ccc(C2C(C#N)=C(N)Oc3cc(C)oc(=O)c32)cc1 (centres unmarked) | -2.32%
O=C(NCCN1CCN(C(=O)c2ccc(Br)cc2)CC1)C(=O)NCc1ccco1 | 2.09%
O=[N+]([O-])c1ccc(-c2ccc(S(=O)(=O)NCCN3CCCC3)cc2)cc1 | -4.96%
CC(C)CCn1c(CN(C)Cc2ccccc2)nc2c1c(=O)n(C)c(=O)n2C | 2%
CC1CC(C)CN(C(=O)C(Cc2ccccc2)NS(=O)(=O)c2cccs2)C1 (centres unmarked) | -9.05%
Cc1ccc(C)c(OCc2ccc(C(=O)NCc3ccc(F)cc3)o2)c1 | 2.32%
Cc1nc2cc(-c3ccc(Cl)cc3)nn2c(C)c1CCC(=O)NCc1ccc2c(c1)OCO2 | -2.25%
COc1ccc2[nH]c3c(=O)n(N)c(=O)[nH]c3c2c1 | -3.44%
CC(=O)c1cccc(NC(=O)c2ccc3c(c2)C(=O)N(Cc2cccnc2)C3=O)c1 | 3.81%
O=C(c1ccccc1)N1CCC(c2nc(O)c3nnn(Cc4c(F)cccc4F)c3n2)CC1 | -4.07%
CCN1CCC2(CC1)OC(=O)C(C)=C2C(=O)N1CCN(C(=O)c2ccco2)CC1 | 2.62%

Compound | % Inhibition @ 10 uM
Cc1cc2cc(CNC(=O)c3ccc(F)cc3)ccc2[nH]1 | -0.138%
CCN(CC)S(=O)(=O)c1ccc(-c2csc(-c3ccccc3)n2)cc1 | -0.661%
Cc1nn(-c2ccccc2)c(O)c1-c1c(C)nn(-c2ccccc2)c1O | -1.22%
Cc1ccccc1-c1nc(CSCC(=O)NC(C)c2ccc3c(c2)OCCO3)c(C)o1 (centres unmarked) | 0.689%
CC[C@H](C)[C@H](NC(=O)OCc1ccccc1)C(=O)NNC(=O)c1csc([C@H](CC(C)C)NC(=O)OCc2ccccc2)n1 | -9.15%
Cc1cc2nn(-c3ccccc3)nc2cc1NC(=O)C(C)C | -3.83%
O=C(Nc1cccc(F)c1)c1ccccc1Cl | 1.48%
CCOCCCNc1ncnc2c1cnn2C | 0.925%
Cc1ccc(S(=O)(=O)Nc2ccc(S(=O)(=O)Nc3nccc(C)n3)cc2)cc1 | 2.67%
CCOc1ccccc1/C=C1\CCC(C2CCCC2)C1=O (centres unmarked) | 22.4%
Cc1oc(-c2ccc(Cl)cc2)nc1CS(=O)CC(=O)NC(C)c1ccccc1 (centres unmarked) | -2.85%
COc1ccccc1CNC(=O)C1CCC(=O)N1C(C)C (centres unmarked) | 2.05%
COc1ccc(C2=NN(C(C)=O)C(c3ccccc3)C2)cc1OC (centres unmarked) | -1.42%
C=Cc1ccc(Cn2c(C)c(CNCc3ccc4c(c3)OCO4)c(C(=O)O)c2C)cc1 | -1.92%
CCOC(=O)N1CCC(N2CCN(c3ccccc3C)CC2)CC1 | -1.81%
CC(C)CCNS(=O)(=O)c1ccc2[nH]c3c(c2c1)CCCC3 | 4.43%
CC(C)(C)NC(=O)CN1C(=O)S/C(=C\c2ccccc2)C1=O | 1.04%
O=C(Nc1ccc(Cl)cc1C(=O)NCc1cccnc1)c1ccco1 | 2.36%
CCn1c(NC(=O)C23CC4CC(C2)CC(n2cnc(Cl)n2)(C4)C3)nc2ccccc21 | 0.64%
COc1ccccc1OCC(=O)NC1CCCCC1 | -4.66%
O=C(O)Cn1c2ccccc2c2cc(Cl)ccc21 | -5.11%
COCCNC(=O)Cn1nc(C)n2c(cc3cc(OC)ccc32)c1=O | 1.68%
C=CCc1cc(/C=C2/NC(=O)N(Cc3ccccc3F)C2=O)cc(OC)c1O | -2.63%
COc1cc(NC(=O)c2ccc(OC(F)F)cc2)cc(OC)c1OC | -1.96%
Cc1noc(NS(=O)(=O)c2ccc(NC(=O)Cc3ccc(Br)cc3)cc2)c1C | 13.6%

Compound | % Inhibition @ 10 uM
Cc1ccccc1OCC(=O)Nc1ccccc1NC(=O)COc1ccccc1C | 11.4%
COc1cccc2c1Sc1ccccc1CC2N1CCN(C)CC1 (centres unmarked) | -7.31%
N#CC1=C(N)OC2=C(C(=O)CC(c3ccccc3)C2)C1c1ccc(F)c(F)c1 (centres unmarked) | 1.96%
CC(=O)N[C@@H](CC1CCCCC1)C(=O)NCC#N | 1.35%
CCOC(=O)N1CCC2(CC1)OC(=O)C(C)=C2C(=O)NCc1ccccc1 | -1.04%
COc1ccc(C(=O)C2=C(O)C(=O)N(CCCN(C)C)C2c2ccc(Cl)c(Cl)c2)cc1C (centres unmarked) | -1.61%
Cc1ccc2oc(=O)c3cc(C(=O)NCCN(C)C)sc3c2c1 | 0.232%
O=C(c1cccnc1N1CCN(CCO)CC1)N1CCCC1 | -2.67%
O=c1c2c(-c3ccccc3)csc2nc2c3ccccc3c(NCCN3CCOCC3)nn12 | 20.4%
Cc1ccc(NC(=O)c2ccc(OC(F)F)cc2)cc1C | 21.6%
NC(=O)c1nc(-c2cccs2)nc2c1nc(O)n2-c1ccccc1 | -10%
O=C(Nc1ccc(NC(=O)c2ccco2)c(Cl)c1)c1ccc(Br)cc1 | 4.22%
O=C(O)C1C2CCC(C2)C1C(=O)Nc1nc(-c2ccc(Cl)cc2)cs1 (centres unmarked) | 2.25%
COc1ccc(-c2cc(C(=O)O)c(C)n2C)cc1 | -1.51%
O=C(Cn1sc2ccccc2c1=O)N1CCN(C(=O)c2ccco2)CC1 | -1.65%
COc1ccc(CCNC(=O)c2ccc(CS(=O)Cc3ccc(C)cc3)o2)cc1OC (centres unmarked) | -0.154%
O=C(c1cc2ccccc2oc1=O)N1CCN(C(c2ccccc2)c2ccccc2)CC1 | 7.96%
C1=C(CCNCC2CCCCC2)CCCC1 | -2.77%
O=C(Nc1cccnc1)c1cnn(-c2ccccc2)c1-n1cccc1 | 0.137%
Cc1ccc(CN2CCN(c3ncccn3)CC2)c(C)c1 | 3.1%
c1cc2c3c(cccc3c1)C(SCCc1ccncc1)C2 (centres unmarked) | -7.25%
Cc1nc2ccc(NC(=O)N3CCC(c4ccccc4)C3)cc2nc1C (centres unmarked) | -5.71%
Cc1nc2sc3c(O)cc(O)nc3c2c(C)c1C | -6.58%
CN1C(=O)/C(=C/c2nc3ccccc3c(=O)n2-c2ccccc2)c2ccccc21 | 8.56%
COc1ccc(S(=O)(=O)N(CC(=O)N2CCCCC2)c2ccc(C)cc2)cc1Br | -5.13%

Compound | % Inhibition @ 10 uM
CCn1c2ccccc2c2cc(CNc3ccc(F)cc3)ccc21 | -1.81%
O=c1/c(=C/c2c(F)cccc2Cl)sc2nc(-c3ccccc3)nn12 | 0.0069%
CC(C)(C)c1csc(NC(=O)C23CC4CC(CC(C4)C2)C3)n1 | -6.36%
CC(C)(C)CC(=O)NCc1nc(-c2ccc(Cl)cc2)no1 | -6.96%
Cc1nn(CCC(=O)NCc2ccco2)c(=O)c2nn(-c3ccccc3)c(C)c12 | 0.227%
COc1cccc(CN2CCN(Cc3ccc(OC)c(OC)c3)CC2)c1 | -6.27%
Cc1ccc(-c2[nH]nc3c2C(c2ccoc2)C(C#N)=C(N)O3)cc1C (centres unmarked) | 9.57%
O=C(Nc1ccc2oc(=O)ccc2c1)c1ccc(Br)cc1 | -4.23%
CC[C@H](NC(=O)C(Cc1c(F)cccc1F)NC(=O)c1ccc(-c2ccccc2Cl)cc1)C(=O)c1nc2ccccc2o1 (some centres unmarked) | -6.56%
CN(Cc1ccco1)C(=O)Cn1cc(S(=O)(=O)N2CCCC2)c(S(=O)(=O)N2CCCC2)c1 | -7.06%
CCOP(=O)(OCC)C(=O)c1ccccc1F | -3.65%
COc1cc(NC(=O)C(C)(C)Oc2ccc(Cl)cc2)cc(OC)c1 | 12.5%
COC(=O)c1cc2occc2n1Cc1ccc(C)cc1 | -0.405%
O=C(NCc1cccs1)C1CCC(CNS(=O)(=O)c2cccc3nsnc23)CC1 (centres unmarked) | -0.465%
CCCCc1ccc(-c2nc(/C=N/c3cccnc3)c(O)o2)cc1 | 1.95%
Cc1ccccc1C(=O)O/N=C(\c1ccccc1)c1ccccn1 | 1.13%
COc1ccc2c(c1)CC/C(=C\c1ccc(F)cc1)C2=O | 5.7%
N#CCNC(=O)[C@H](CCCc1ccccc1)NC(=O)c1ccccc1 | -1.83%
Cc1cc2c(cc3c(=O)n(CC(=O)NC4CCC(C)CC4)ncn32)s1 (centres unmarked) | -1.7%
O=C(COc1ccc(Cl)cc1Cl)Nc1ccc(S(=O)(=O)Nc2nccs2)cc1 | 11.5%
CN(C)c1ccc(-n2nc3ccc(NC(=O)c4ccco4)cc3n2)cc1 | -0.171%
COc1ccccc1-n1c(S)nnc1-c1nn(C)c(C)c1Cl | 3.94%
CC(=O)Nc1nc2c(s1)CC(c1ccccc1)CC2 (centres unmarked) | 2.84%
